# The whole screen tested about 39,000 compounds, of which about 220 (0.56%) showed activity. This is one part of the list.
# System: Escherichia coli K-12 BW25113
# Assay: relative growth (OD600 normalised to plate interquartile mean) (fraction); higher = less growth inhibition, active = 0.2 or less
# Details: 50 µM; LB; incubation time: overnight (16-24 h)
# 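Further: static incubation at 37 °C against the wild-type strain, values averaged over two biological replicates.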
row,SMILES,relative growth
1,CCCC(=O)Nc1ccc2c(c1)OC[C@H](C)N(S(=O)(=O)c1cn(C)cn1)C[C@@H](C)[C@H](OC)CN(C)C2=O,inactive: 1.02
2,CO[C@@H](CN(C)S(=O)(=O)c1cccc(Cl)c1)[C@H](C)CN([C@H](C)CO)S(=O)(=O)c1ccc(Cl)cc1,inactive: 1.04
3,CN1C(=O)c2cc(NC(=O)c3cscn3)ccc2OC[C@H]2O[C@@H](CC(=O)N3CCOCC3)CC[C@@H]21,inactive: 0.995
4,O=C(CN1CCOCC1)NCC[C@@H]1CC[C@@H](NC(=O)c2ccc3c(c2)OCO3)[C@H](CO)O1,inactive: 1.03
5,C[C@@H]1CN([C@H](C)CO)C(=O)c2cc(NS(C)(=O)=O)ccc2O[C@@H]1CN(C)Cc1ccc(C(=O)Nc2ccccc2N)cc1,inactive: 1.01
6,Cc1ccc(O)c(CO)n1,inactive: 1.04
7,CC(=O)N(C)CP(=O)(O)CN1CCCC1=O,inactive: 1.03
8,C[C@H]1CN([C@@H](C)CO)C(=O)c2cc(NS(C)(=O)=O)ccc2O[C@@H]1CN(C)Cc1ccc2c(c1)OCO2,inactive: 0.987
9,C[C@H](CO)N1C[C@H](C)[C@@H](CN(C)S(=O)(=O)c2ccccc2)Oc2ccc(NC(=O)Nc3cccc4ccccc34)cc2C1=O,inactive: 1
10,COc1ccc(S(=O)(=O)Nc2ccc3c(c2)C(=O)N([C@H](C)CO)C[C@H](C)[C@@H](CN(C)S(=O)(=O)c2ccc(OC)cc2)O3)cc1,inactive: 1.05
11,COc1ccc(S(=O)(=O)Nc2ccc3c(c2)CC(=O)N([C@H](C)CO)C[C@H](C)[C@H](CN(C)Cc2ccncc2)O3)cc1,inactive: 0.996
12,COc1ccc(S(=O)(=O)N[C@@H]2C=C[C@H](CC(=O)NCCc3ccncc3)O[C@@H]2CO)cc1,inactive: 1.01
13,C#CC1(O)CCC2C3CCC4=CCCCC4C3CCC21C (configuration not stated),inactive: 1.05
14,C[C@H](CO)N1C[C@H](C)[C@H](CN(C)Cc2ccc(-c3ccccc3)cc2)Oc2ccc(NC(=O)CCC(F)(F)F)cc2CC1=O,inactive: 0.986
15,C=CCOC(=O)[C@H]1[C@@H]2C(=O)O[C@@H](c3ccccc3)[C@@H](c3ccccc3)N2[C@@H](c2ccc(OCCOC(=O)[C@@H]3C[C@@H]4C(=O)N[C@@H](CCCC[N+](C)(C)C)C(=O)N4[C@@H]3c3ccc(O)cc3)cc2)[C@]12C(=O)Nc1ccc(I)cc12,inactive: 1.01
16,C[C@@H]1CN([C@@H](C)CO)C(=O)c2cccc(NS(=O)(=O)c3cccs3)c2O[C@H]1CN(C)C(=O)Nc1cccc2ccccc12,inactive: 1.01
17,COc1ccc(NC(=O)N2C[C@@H](O)COC[C@@H]3O[C@H](CC(=O)NCc4ccccc4OC)CC[C@H]32)cc1,inactive: 1.01
